# Measured values taken from PubChem BioAssay AID1347165 (National Center for Advancing Translational Sciences (NCATS), 2019).
# The whole screen tested about 220,000 compounds, of which about 5,700 (2.6%) were called active. Inconclusive results, whose numbers are uncertain, are shown with a selection of clear calls. Calls come from the whole dose curve; as a rule, active = well fitted inhibition curve with a large enough effect; inconclusive = small, poorly fitted or top-dose-only effect; inactive = no such curve, though single readings can be large or run the other way. A potency beside an inconclusive call is a rough fit, not a confirmed value.
# Target: Lysine-specific demethylase 5B (Homo sapiens) (UniProt Q9UGL1)
# Chain of UniProt Q9UGL1 (Q9UGL1 whole entry, looked up): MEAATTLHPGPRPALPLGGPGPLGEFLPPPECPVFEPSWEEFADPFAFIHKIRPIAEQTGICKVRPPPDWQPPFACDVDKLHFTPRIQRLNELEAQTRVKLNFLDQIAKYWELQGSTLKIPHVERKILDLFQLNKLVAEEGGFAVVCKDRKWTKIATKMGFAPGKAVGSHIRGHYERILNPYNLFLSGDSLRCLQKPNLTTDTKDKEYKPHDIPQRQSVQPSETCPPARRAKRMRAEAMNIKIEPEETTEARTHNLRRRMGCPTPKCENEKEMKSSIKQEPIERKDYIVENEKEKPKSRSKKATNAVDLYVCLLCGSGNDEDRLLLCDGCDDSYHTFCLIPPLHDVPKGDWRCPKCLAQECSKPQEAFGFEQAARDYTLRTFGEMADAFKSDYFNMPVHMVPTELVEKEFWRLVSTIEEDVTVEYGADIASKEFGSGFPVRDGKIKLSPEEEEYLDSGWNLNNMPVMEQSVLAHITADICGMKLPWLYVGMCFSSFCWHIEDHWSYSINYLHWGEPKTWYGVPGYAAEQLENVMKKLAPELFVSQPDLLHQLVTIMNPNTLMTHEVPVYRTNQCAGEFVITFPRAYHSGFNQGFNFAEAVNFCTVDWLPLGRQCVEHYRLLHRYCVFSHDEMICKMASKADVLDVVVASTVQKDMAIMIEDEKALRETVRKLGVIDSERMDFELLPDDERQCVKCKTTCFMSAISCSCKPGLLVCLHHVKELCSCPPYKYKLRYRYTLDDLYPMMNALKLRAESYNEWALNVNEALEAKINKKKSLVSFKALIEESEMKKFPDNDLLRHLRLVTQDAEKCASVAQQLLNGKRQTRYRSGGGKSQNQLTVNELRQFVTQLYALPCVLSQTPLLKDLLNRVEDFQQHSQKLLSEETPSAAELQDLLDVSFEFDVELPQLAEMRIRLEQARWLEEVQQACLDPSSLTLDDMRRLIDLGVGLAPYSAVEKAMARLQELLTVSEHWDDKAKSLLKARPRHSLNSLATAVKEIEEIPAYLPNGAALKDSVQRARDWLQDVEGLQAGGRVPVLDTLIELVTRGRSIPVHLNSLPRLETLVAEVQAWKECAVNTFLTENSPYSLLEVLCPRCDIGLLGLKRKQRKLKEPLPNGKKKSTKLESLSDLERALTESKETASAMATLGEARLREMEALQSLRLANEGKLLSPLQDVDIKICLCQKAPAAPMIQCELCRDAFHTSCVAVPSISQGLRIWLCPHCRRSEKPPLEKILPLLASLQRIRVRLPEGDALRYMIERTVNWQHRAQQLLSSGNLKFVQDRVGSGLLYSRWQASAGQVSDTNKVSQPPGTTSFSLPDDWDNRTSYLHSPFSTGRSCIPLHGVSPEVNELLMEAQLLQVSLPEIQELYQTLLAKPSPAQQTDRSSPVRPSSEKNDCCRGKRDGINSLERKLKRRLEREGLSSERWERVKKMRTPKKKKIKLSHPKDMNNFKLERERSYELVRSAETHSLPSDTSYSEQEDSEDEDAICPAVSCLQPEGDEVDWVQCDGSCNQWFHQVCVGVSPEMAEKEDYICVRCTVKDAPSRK
# Test: Primary screen for KDM5B Histone Demethylases FDH-coupled qHTS; note: nearly all actives have a fitted effect of over 70% in size; for activity change, negative = inhibition: 0% is about no effect
# Conditions: FDH-coupled NADH fluorescence (FDH is formaldehyde dehydrogenase); activity change, negative = inhibition: at 57.7 µM (top of the series) unless noted
# In short: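 Here, H3K4me3 peptide (12.5 µM in substrate mix) is demethylated by KDM5BΔAP, 200 nM final, after 10 min compound exposure. Formaldehyde product is coupled through FDH (0.25 U/mL in mix) to NADH fluorescence; 30-min ΔRFU feeds dose-response curves.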
# Potency is the fitted concentration of half-maximal effect; tags give direction and shape of the fitted curve.
SMILES,"activity change, negative = inhibition",Potency
CN(C)C(=O)c1ccc(OC2CCN(C(=O)c3ccccc3)CC2)nc1,inactive: 25.5%,
CC(C)CNC(=O)c1c(-n2cnnn2)sc2c1CCC2,,"inconclusive: 35.5 µM [inhibitor, single point]"
Nc1nn(Cc2ccc(Cl)cc2Cl)cc1Br,,"inconclusive: 39.8 µM [inhibitor, single point]"
CC1=C(C(=O)N2CCOCC2)C(c2ccc(F)c(Br)c2)C2=C(CCCC2=O)N1 (stereo not drawn),,"inconclusive: 25.1 µM [inhibitor, partial curve, poor fit]"
Cc1nn(-c2ccccc2)c(C)c1/C=N/n1c(-c2ccccc2Br)n[nH]c1=S,,"inconclusive: 39.8 µM [inhibitor, partial curve, poor fit]"
O=C(c1n[nH]c(=O)c2ccccc12)N1CCC(Cc2ccccc2)CC1,inactive: 4.53%,
N#Cc1cccc(-c2cn3c(n2)N(C(=O)C2CCC2)CCC3)c1,,active: 22.4 µM
COc1ccc(N2CCN(c3ncnc4scc(-c5ccc(C)cc5)c34)CC2)cc1,,"inconclusive: 35.5 µM [inhibitor, partial curve, poor fit]"
C=CCOc1cccc2[nH]c(C(=O)O)cc12,,"inconclusive: 31.6 µM [inhibitor, partial curve, poor fit]"
CC1Oc2ccc(NC(=O)c3cccc(F)c3)cc2CN(Cc2ccc3c(c2)OCO3)C1=O (stereo not drawn),,"inconclusive: 6.31 µM [inhibitor, single point]"
COc1cccc(-c2cc3c(=O)n(CC(O)c4ccc(C(C)C)cc4)ccn3n2)c1 (stereo not drawn),,"inconclusive: 39.8 µM [inhibitor, single point]"
CCc1nc2cc(N3CCC(C(=O)NCc4cccnc4)CC3)cnc2nc1CC,,"inconclusive: 12.6 µM [inhibitor, partial curve]"
CC(=O)NC1(C)CCN(Cc2ccc(-c3ccc4ccccc4c3)cc2)C1 (stereo not drawn),,"inconclusive: 31.6 µM [inhibitor, partial curve, poor fit]"
CCN(CC)C(=O)COc1cc(O)c2c(=O)cc(-c3ccccc3)oc2c1,inactive: 0.492%,
Cc1cc(C)c2[nH]c(C)c(CN3CCC(C)CC3)c(=O)c2c1,,"inconclusive: 22.4 µM [inhibitor, single point]"
COc1ccnc(N2CC[C@H](c3nnc(-c4ccc(C)cc4)o3)C2)n1,,"inconclusive: 35.5 µM [inhibitor, partial curve, poor fit]"
O=C(NCc1cccc2[nH]ccc12)C1CCCN(C2CCN(C(=O)C3CC3)CC2)C1 (stereo not drawn),,"inconclusive: 39.8 µM [inhibitor, single point]"
Nc1nccc(-c2cc(-c3ccc(Cl)cc3Cl)no2)n1,,"inconclusive: 22.4 µM [inhibitor, single point]"
CN(C)c1ccc2ncc(Nc3ccccc3)n2n1,inactive: -20.3% [at 115 µM],
COc1ncccc1-c1cn(C)c(=O)n2cc(CNc3ccccc3)nc12,,"inconclusive: 22.4 µM [inhibitor, partial curve]"
COCCNC(=O)c1ccc2c(c1)C1(CCN(C)C1)CN2Cc1csc(C)n1 (stereo not drawn),,"inconclusive: 35.5 µM [inhibitor, partial curve, poor fit]"
CCOc1ccc(CCNC(=O)CS(=O)(=O)Cc2nc(-c3ccccc3C)oc2C)cc1,,"inconclusive: 39.8 µM [inhibitor, single point]"

SMILES,"activity change, negative = inhibition",Potency
c1ccc(-c2nnc3ccc(NC4CCC4)nn23)nc1,,"inconclusive: 63.1 µM [inhibitor, single point]"
C[C@@H]1CN(C(=O)c2cnc3c(O)cccn3c2=O)CC[C@@]1(O)C1CCC1,,active: 31.6 µM
O=C(NC1CCCCC1)C1CCc2ncc(-c3ccsc3)n2C1 (stereo not drawn),,"inconclusive: 35.5 µM [inhibitor, single point]"
Cc1cccc(Cn2nnc3c(=O)n(Cc4nc(-c5ccccc5C)no4)cnc32)c1,inactive: 6.91%,
CN1CCOc2c(C(=O)NCc3cnn(C)c3)cc(-c3ccccc3)cc21,,active: 39.8 µM
O=C(O)C1(CCc2ccccc2)CCCN(c2ncnc3nc[nH]c23)C1 (stereo not drawn),,"inconclusive: 14.1 µM [inhibitor, partial curve]"
CC(=O)N[C@@H]1CN(Cc2cccn2C)C[C@H]1CO,,"inconclusive: 39.8 µM [inhibitor, partial curve, poor fit]"
COc1ccccc1-c1ccnc(N[C@H]2CO[C@H]3[C@@H]2OC[C@@H]3NS(=O)(=O)c2ccc(NC(C)=O)cc2)n1,inactive: 126%,
CN1CCN(c2ncnc3sc4c(c23)CCNC4)CC1,,"inconclusive: 22.4 µM [inhibitor, partial curve]"
COc1ccc(CN2C[C@H](O)C[C@H]2c2nc(-c3cccc(C)c3)no2)c2ccccc12,,active: 22.4 µM
COc1cccc(CCNC(=O)c2c(O)nc3ccccn3c2=O)c1,,"inconclusive: 39.8 µM [inhibitor, single point]"
O=C(Cn1ccn2nc(-c3ccc(F)cc3)c(CO)c2c1=O)Nc1ccc(Cl)cc1F,,active: 31.6 µM
Cc1ccc(S(=O)(=O)N(Cc2ccc(C(=O)NC3CC3)cc2)C2CC2)c(C)c1,inactive: 27.4%,
COc1cc2c(=O)n(CCC(=O)NCC3CCCO3)c(=O)n(CC(=O)Nc3ccc(C)c(C)c3)c2cc1OC (stereo not drawn),,"inconclusive: 39.8 µM [inhibitor, single point]"
Cc1c(CO)cccc1NC(=O)c1ccc(CN2CCCC(C)C2)cc1 (stereo not drawn),,"inconclusive: 17.8 µM [inhibitor, single point]"
Cc1ccc(OCC(=O)N(Cc2ccco2)Cc2ccc(C)o2)cc1,,"inconclusive: 28.2 µM [inhibitor, single point]"
O=C1Nc2ccccc2CC12CN(Cc1ccc(F)c(F)c1F)C2,inactive: 19.4% [at 149 µM],
O=C1NCC(c2ccc(Cl)cc2)Cc2[nH]c(-c3ccc(O)cc3)nc21 (stereo not drawn),,active: 25.1 µM
CCCc1noc(-c2cccn3c(CNC(=O)Cc4ccc(Cl)cc4)nnc23)n1,,active: 25.1 µM
Cc1nn(C)c2nc(NCCCN3CCNC(=O)C3)sc12,,"inconclusive: 15.8 µM [inhibitor, partial curve, poor fit]"
CCCN1CCc2[nH]cnc2C12CCN(C(=O)Cn1cc(C)c(=O)[nH]c1=O)CC2,inactive: -25.3%,
